From article PMC4336329 (PLoS ONE, 2015)
Screen size: about 310,000 compounds; about 14,000 (4.5%) showed an effect of 50% or more. Effects have a minus sign here. The list shows a part of the results.

target: human ether-à-go-go-related gene (hERG) potassium channel (human, UniProt Q12809); assay: primary screen, population patch clamp on CHO cells stably expressing hERG
Procedure: Briefly, Chinese hamster ovary (CHO) cells stably expressing the hERG channel were dislodged from tissue culture flasks and dispensed into PPC plates. […] During the recording, background leak currents were estimated by a 100 ms step to -80 mV from an initial holding potential of -70 mV and subtracted from the subsequent current measurement. The campaign was conducted in two phases using slight differences in recording protocol. In the first phase, the initial voltage pulse used a 100 ms step to -30 mV from a holding potential of -70 mV, a 2 s conditioning step to +25 mV, and a 2 s test step to -30 mV. During the second phase of the screen, the potential during the conditioning step was raised to +45 mV. In both phases of the campaign, a secondary voltage pulse was applied using the same parameters as the second phase initial pulse. The initial and secondary pulses were applied in the absence of compound, and upon application of 1 μM and 10 μM test concentrations. […]
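Further: peak tail current of the secondary pulse compared with the same well before compound.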

human ether-à-go-go-related gene (hERG) potassium channel, sequence (Q12809 whole entry, looked up): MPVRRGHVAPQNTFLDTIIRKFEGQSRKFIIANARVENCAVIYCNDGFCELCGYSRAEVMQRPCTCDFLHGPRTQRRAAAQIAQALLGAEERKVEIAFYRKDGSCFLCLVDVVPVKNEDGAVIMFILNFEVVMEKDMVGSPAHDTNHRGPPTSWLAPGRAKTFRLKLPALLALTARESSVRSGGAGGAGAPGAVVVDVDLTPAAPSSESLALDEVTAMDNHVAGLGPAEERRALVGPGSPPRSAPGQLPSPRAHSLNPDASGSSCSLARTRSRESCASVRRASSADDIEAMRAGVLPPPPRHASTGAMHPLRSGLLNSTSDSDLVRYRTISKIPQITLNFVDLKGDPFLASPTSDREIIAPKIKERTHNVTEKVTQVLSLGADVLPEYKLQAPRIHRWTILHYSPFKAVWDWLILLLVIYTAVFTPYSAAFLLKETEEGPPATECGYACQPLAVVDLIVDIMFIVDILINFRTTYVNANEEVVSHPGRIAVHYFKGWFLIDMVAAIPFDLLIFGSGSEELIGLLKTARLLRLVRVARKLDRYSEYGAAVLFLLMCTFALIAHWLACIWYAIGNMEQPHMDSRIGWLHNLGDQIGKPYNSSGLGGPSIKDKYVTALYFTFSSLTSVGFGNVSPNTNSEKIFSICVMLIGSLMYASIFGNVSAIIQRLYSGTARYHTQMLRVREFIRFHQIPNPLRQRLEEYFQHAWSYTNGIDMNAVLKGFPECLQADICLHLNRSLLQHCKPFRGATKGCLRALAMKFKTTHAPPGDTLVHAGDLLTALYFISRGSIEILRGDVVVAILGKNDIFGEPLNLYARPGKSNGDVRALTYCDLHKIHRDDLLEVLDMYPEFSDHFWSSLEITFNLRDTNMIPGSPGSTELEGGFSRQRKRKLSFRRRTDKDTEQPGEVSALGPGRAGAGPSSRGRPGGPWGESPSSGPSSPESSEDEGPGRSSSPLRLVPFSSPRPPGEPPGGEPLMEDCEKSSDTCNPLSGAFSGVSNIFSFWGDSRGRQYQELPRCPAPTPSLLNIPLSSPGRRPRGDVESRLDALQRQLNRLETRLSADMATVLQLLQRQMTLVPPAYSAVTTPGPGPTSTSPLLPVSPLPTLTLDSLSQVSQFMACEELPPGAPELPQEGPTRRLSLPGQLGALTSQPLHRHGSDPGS

SMILES	hERG current change (%, negative = inhibition) at 10uM
COc1ccc(N(CC(=O)NC2CCCCC2)C(=O)CNC(=O)c2ccco2)cc1	-2.3%
CCOC(CNC(=O)c1nnc(Cc2cc(OC)c(OC)c(OC)c2)o1)OCC	-5.87%
Cc1cc(C)cc(NC(=S)NC(=O)CCN2C(=O)c3ccccc3C2=O)c1	5.26%
N#CCS(=O)(=O)c1ccccc1	18.7%
O=C(NCc1cn2ccccc2n1)c1ccc(Br)o1	-9.75%
C=CCn1c(SCC(=O)NCC2CCCO2)nnc1C1CCCCC1 (stereo not shown)	4.97%
C=CCN1CC[C@@]2(C)c3cc(O)ccc3CC1[C@@H]2C.Cl	-11.2%
Cc1ccccc1NC(=O)NCCc1c[nH]c2ccccc12	3.2%
O=C(CCN1CCCCC1)NCNC(=O)CCN1CCCCC1	8.62%
CCOC(=O)c1c(C)nc2sc(C(=O)Nc3ccccc3)c(N)c2c1-c1ccc(OC)cc1	4.13%
CCOc1cc(N2CCOCC2)c(OCC)cc1NC(=O)CN1C(=O)NC2(CCc3ccccc32)C1=O (stereo not shown)	-44.5%
CCOc1ccc2nc(SCC#N)c(C#N)cc2c1	8.42%
CC(=O)c1c(C)[nH]c(C(=O)NCc2cccs2)c1C	-0.906%
CC1CCN(S(=O)(=O)CCNC(=O)c2ccc3c(c2)OCO3)CC1	-13.3%
COc1ccc(CCNC(=O)Cn2cccc2C(=O)c2ccccc2)c(OC)c1	15%
C=CCn1c(COc2ccc(F)cc2)nnc1SCC(=O)NC1CC1	-8.99%
O=C(N/N=C/c1ccccn1)c1cccc(S(=O)(=O)N2CCCC2)c1	-18%
O=C(O)CSCCCC(=O)Nc1ccc(Br)cc1	2.38%
O=[N+]([O-])c1c2ccccc2cc2ccccc12	13.3%
O=C(N/N=C/C=C\c1ccccc1)c1cnccn1	-7.49%
Cl.O=C(COc1ccc(Br)cc1)OCCN1CCCCC1	11.8%
Fc1ccccc1C1c2[nH]c3ccccc3c2CCN1CCCn1cccn1 (stereo not shown)	-46.4%
CC(=O)c1sc(NC(=O)c2ccccc2)nc1-c1ccccc1	-7.59%

SMILES	hERG current change (%, negative = inhibition) at 10uM
CCOc1c2ccc(C(=O)N[C@H](C)C3CCCCC3)cc2nn1CCOC	-18.2%
COc1cc(OC)c(S(=O)(=O)NCc2cccnc2)cc1NC(C)=O	6.65%
O=C(Nc1ccccc1N1CCOCC1)C1CCN(S(=O)(=O)c2cccc(C(F)(F)F)c2)CC1	-8.46%
O=c1[nH]c(-c2ccc(F)cc2)nc2c1sc(=S)n2-c1ccccc1	-3.58%
CC(=O)c1ccc(N2CCN(C(=S)Nc3cccc(Cl)c3)CC2)cc1	-6.99%
O=C(NCc1cccnc1)c1ccc(NC(=O)c2ccc(Br)cc2)cc1	20.7%
COc1ccc(NC(=O)Oc2ccccc2)cc1Cl	10.5%
CCOc1ccc(S(=O)(=O)NC2CC2)cc1C(N)=O	0.752%
Clc1ccc(NC2(c3nnnn3C3CCCCC3)CCCCC2)cc1	10.8%
COc1ccccc1N1C(=O)CC(N2CCc3ccccc32)C1=O (stereo not shown)	15.8%
O=S(=O)(c1ccccc1F)N1CCN(c2nc3ccccc3s2)CC1	12.1%
O=C(C(=O)N1CCOCC1)c1c[nH]c2ccccc12	18.3%
NNC(=O)Cn1nc(Cc2ccccc2)n(N)c1=O	8.22%
CCOC(=O)C(CCCP(=O)(c1ccccc1)c1ccccc1)(NC(C)=O)C(=O)OCC	19.9%
Nc1nnc(COc2ccc(Br)cc2Br)s1	-9.38%
CCC(C)Sc1ccc([C@H]2N[C@@](C)(C(=O)OC)[C@H]3C(=O)N(C)C(=O)[C@@H]23)cc1OC.O=C(O)C(F)(F)F (stereo partly shown)	-11.1%
O=C(NC1CCCCC1)c1ccc2c(c1)OCCO2	6.19%
COc1cccc(Nc2nc(C)nc3c2oc2ccccc23)c1	9.25%
C=CCc1ccc(OCCCNC2CCCC2)c(OC)c1	-48.1%
Cc1cccc(OCC(=O)Nc2ccc(N3CCN(C(=O)c4ccco4)CC3)cc2)c1C	-1.9%
O/N=C(\c1ccc(Cl)cc1Cl)c1ncc(C(F)(F)F)cc1Cl	-18.8%
Cc1occc1C(=O)Nc1cccc(C(=O)O)c1	3.33%
NS(=O)(=O)c1ccc(NNC(=O)c2ccccc2C(=O)O)cc1	21.1%
